# From PubChem BioAssay AID220 (DTP/NCI, 2004)
# Results filed as inconclusive are left out. Some entries of the source have several records that differ or are many. This is not the full list of results. The source may hold further records. The values listed for one entry do not match, cause unknown; they may come from other doses, times, organisms or constructs than stated.
# Test system: CD8F1 mice, subcutaneous mammary adenocarcinoma, T/C%
# Experiment: NCI In Vivo Anticancer Drug Screen. Data for tumor model Mammary Adenocarcinoma CD8F1 (subcutaneous) in CD8F1
# Conditions: higher = larger tumour
# Summary of the method: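 Ratio of treated to vehicle-control outcome, based on either survival or tumor size, in mice bearing transplantable tumors given the test compound.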
# [1] = endpoint: median tumor weight change, dose: 125.0 mg/kg/injection, schedule: Q01DX001 (ip), vehicle: saline with Tween-80
# [2] = endpoint: median tumor weight change, dose: 250.0 mg/kg/injection, schedule: Q01DX001 (ip), vehicle: saline with Tween-80
# [3] = endpoint: median tumor weight change, dose: 500.0 mg/kg/injection, schedule: Q01DX001 (ip), vehicle: saline with Tween-80
structure (smiles),measurement,setting,value
Nc1ccc(S(=O)(=O)Nc2cnc3c(Cl)cccc3n2)cc1,T/C,"endpoint: median tumor weight change, dose: 250.0 mg/kg/injection, schedule: Q01DX001 (ip), vehicle: DMSO",90 % of control and 156 % of control
same,T/C,"endpoint: median tumor weight change, dose: 1000.0 mg/kg/injection, schedule: Q01DX001 (ip), vehicle: DMSO",16 % of control and 88 % of control
OC1(CSc2ccccc2)CCCCC1,T/C,[1],50 % of control and 95 % of control
same,T/C,[2],"96 % of control, 106 % of control, 174 % of control"
same,T/C,[3],"43 % of control, 78 % of control, 107 % of control"
CC1OC(OC2CC(O)(C(=O)CO)Cc3c(O)c4c(c(O)c32)C(=O)c2ccccc2C4=O)CC(N)C1O (centres undefined),T/C,"endpoint: median tumor weight change, dose: 2.5 mg/kg/injection, schedule: Q01DX001 (ip), vehicle: water",-30 % of control and 20 % of control
same,T/C,"endpoint: median tumor weight change, dose: 5.0 mg/kg/injection, schedule: Q01DX001 (ip), vehicle: water",-60 % of control and -13 % of control
CN(C)N=Nc1ccccc1,T/C,"endpoint: median tumor weight (est.), dose: 50.0 mg/kg/injection, schedule: Q07DX005 (ip), vehicle: Klucel (hydroxypropylcellulose) (HPC)",23 % of control and 89 % of control
CNC(=O)c1cccc2c(Nc3ccc(NS(C)(=O)=O)cc3OC)c3cccc(C)c3nc12,T/C,"endpoint: median tumor weight change, dose: 15.0 mg/kg/injection, schedule: Q01DX001 (ip), vehicle: other",41 % of control and 67 % of control
same,T/C,"endpoint: median tumor weight change, dose: 30.0 mg/kg/injection, schedule: Q01DX001 (ip), vehicle: other",24 % of control and 84 % of control
same,T/C,"endpoint: median tumor weight change, dose: 60.0 mg/kg/injection, schedule: Q01DX001 (ip), vehicle: other",-43 % of control and 28 % of control
Oc1c(Cl)cc(Cl)cc1C=NCCSc1ccc(Cl)cc1,T/C,"endpoint: median tumor weight change, dose: 500.0 mg/kg/injection, schedule: Q01DX001 (ip), vehicle: Klucel (hydroxypropylcellulose) (HPC)",51 % of control and 81 % of control
COc1ccc2c(c1)CCn1c(C)c(COC(=O)NC(C)C)c(COC(=O)NC(C)C)c1-2,T/C,"endpoint: median tumor weight change, dose: 62.5 mg/kg/injection, schedule: Q01DX001 (ip), vehicle: distilled water + Tween-80",16 % of control and 77 % of control
same,T/C,"endpoint: median tumor weight change, dose: 125.0 mg/kg/injection, schedule: Q01DX001 (ip), vehicle: distilled water + Tween-80",36 % of control and 70 % of control
CN(C)CCN1C(=O)c2cccc3cc(N)cc(c23)C1=O,T/C,"endpoint: median tumor weight change, dose: 20.0 mg/kg/injection, schedule: Q01DX001 (ip), vehicle: saline with Tween-80","41 % of control, 79 % of control, 98 % of control"
same,T/C,"endpoint: median tumor weight change, dose: 80.0 mg/kg/injection, schedule: Q01DX001 (ip), vehicle: saline with Tween-80",-4 % of control and 42 % of control
CS(C)=O,T/C,"endpoint: median tumor weight (est.), dose: 3.0 grams/kg/injection, schedule: Q07DX005 (ip), vehicle: saline",29 % of control and 112 % of control
same,T/C,"endpoint: median tumor weight (est.), dose: 6.0 grams/kg/injection, schedule: Q07DX005 (ip), vehicle: saline","62 % of control, 73 % of control, 117 % of control"
same,T/C,"endpoint: median tumor weight (est.), dose: 12.0 grams/kg/injection, schedule: Q07DX005 (ip), vehicle: saline","26 % of control, 55 % of control, 88 % of control"
CNNCc1ccc(C(=O)NC(C)C)cc1,T/C,"endpoint: median tumor weight (est.), dose: 1.0 mg/kg/injection, schedule: Q07DX005 (ip), vehicle: saline",68 % of control and 161 % of control
same,T/C,"endpoint: median tumor weight (est.), dose: 2.0 mg/kg/injection, schedule: Q07DX005 (ip), vehicle: saline",63 % of control and 343 % of control
same,T/C,"endpoint: median tumor weight (est.), dose: 4.0 mg/kg/injection, schedule: Q07DX005 (ip), vehicle: saline",63 % of control and 424 % of control
same,T/C,"endpoint: median tumor weight (est.), dose: 8.0 mg/kg/injection, schedule: Q07DX005 (ip), vehicle: saline",48 % of control and 333 % of control
same,T/C,"endpoint: median tumor weight (est.), dose: 32.0 mg/kg/injection, schedule: Q07DX005 (ip), vehicle: saline",54 % of control and 229 % of control
Nc1ncn(C2OC(CO)C(O)C2O)c(=O)n1 (centres undefined),T/C,"endpoint: median tumor weight change, dose: 40.0 mg/kg/injection, schedule: Q01DX001 (ip), vehicle: saline",-44 % of control and 64 % of control
same,T/C,"endpoint: median tumor weight change, dose: 60.0 mg/kg/injection, schedule: Q01DX001 (ip), vehicle: saline","-57 % of control, 21 % of control, 76 % of control"
same,T/C,"endpoint: median tumor weight change, dose: 90.0 mg/kg/injection, schedule: Q01DX001 (ip), vehicle: saline",-50 % of control and 35 % of control
same,T/C,"endpoint: median tumor weight change, dose: 900.0 mg/kg/injection, schedule: Q01DX001 (ip), vehicle: suspension in saline",7 % of control and 58 % of control
COC1OC(CO)C(O)C(NC(=O)N(C)N=O)C1O (centres undefined),T/C,"endpoint: median tumor weight change, dose: 62.5 mg/kg/injection, schedule: Q01DX001 (ip), vehicle: saline",61 % of control and 87 % of control
COC1=C(N)C(=O)c2nc(-c3nc(C(=O)O)c(C)c(-c4ccc(OC)c(OC)c4O)c3N)ccc2C1=O,T/C,"endpoint: median tumor weight change, dose: 0.25 mg/kg/injection, schedule: Q01DX001 (ip), vehicle: Klucel (hydroxypropylcellulose) (HPC)","7 % of control, 16 % of control, 83 % of control"
same,T/C,"endpoint: median tumor weight change, dose: 1.0 mg/kg/injection, schedule: Q01DX001 (ip), vehicle: Klucel (hydroxypropylcellulose) (HPC)","-51 % of control, 4 % of control, 8 % of control"
Cc1oc2c(C)c3oc(=O)cc(C)c3cc2c1CCl,T/C,"endpoint: median tumor weight change, dose: 62.5 mg/kg/injection, schedule: Q01DX001 (ip), vehicle: saline with Tween-80",19 % of control and 62 % of control
same,T/C,[3],"23 % of control, 29 % of control, 103 % of control"
CCC(C(=O)O)C(=O)O.[NH2-].[NH2-].[Pt+2],T/C,"endpoint: median tumor weight change, dose: 250.0 mg/kg/injection, schedule: Q01DX001 (ip), vehicle: saline",-64 % of control and -6 % of control
O=C1c2ccccc2C(=O)c2c(NCCNCCO)ccc(NCCNCCO)c21,T/C,"endpoint: median tumor weight (est.), dose: 8.0 mg/kg/injection, schedule: Q07DX005 (ip), vehicle: water","64 % of control, 89 % of control, 104 % of control"
same,T/C,"endpoint: median tumor weight (est.), dose: 16.0 mg/kg/injection, schedule: Q07DX005 (ip), vehicle: water","51 % of control, 68 % of control, 83 % of control"
same,T/C,"endpoint: median tumor weight (est.), dose: 32.0 mg/kg/injection, schedule: Q07DX005 (ip), vehicle: water","41 % of control, 56 % of control, 80 % of control"
COc1cc2c(c(OC)c1OC)-c1ccc(OC)c(=O)cc1[C@@H](NC(C)=O)CC2,T/C,"endpoint: median tumor weight change, dose: 1.5 mg/kg/injection, schedule: Q01DX001 (ip), vehicle: saline",28 % of control and 74 % of control
same,T/C,"endpoint: median tumor weight change, dose: 3.0 mg/kg/injection, schedule: Q01DX001 (ip), vehicle: saline",-23 % of control and 3 % of control
Cc1ncc([N+](=O)[O-])n1CCSC(N)=O,T/C,"endpoint: median tumor weight (est.), dose: 25.0 mg/kg/injection, schedule: Q07DX005 (ip), vehicle: saline with Tween-80",48 % of control and 101 % of control
same,T/C,"endpoint: median tumor weight (est.), dose: 200.0 mg/kg/injection, schedule: Q07DX005 (ip), vehicle: saline with Tween-80",76 % of control and 103 % of control
CCN(CC)CCNc1ccc(C)c2sc3ccc(O)cc3c(=O)c12,T/C,[2],57 % of control and 168 % of control
same,T/C,[3],19 % of control and 99 % of control
O=Cc1c(O)c2ccccc2[nH]c1=O,T/C,[1],59 % of control and 118 % of control
O=NN(CCCl)C(=O)NC1CCCCC1,T/C,"endpoint: median tumor weight change, dose: 20.0 mg/kg/injection, schedule: Q01DX001 (ip), vehicle: Klucel (hydroxypropylcellulose) (HPC)",42 % of control and 75 % of control
same,T/C,"endpoint: median tumor weight change, dose: 40.0 mg/kg/injection, schedule: Q01DX001 (ip), vehicle: Klucel (hydroxypropylcellulose) (HPC)",-55 % of control and 25 % of control
C/C=C/C=C/c1cc2cc3c(c(O)c2c(=O)[nH]1)C1(CC3)C(O)=c2c(=O)c3c(=O)cc(OC)c(=O)c=3c(=O)c2=C1O (centres undefined),T/C,"endpoint: median tumor weight change, dose: 0.31 mg/kg/injection, schedule: Q01DX001 (ip), vehicle: DMSO",68 % of control and 112 % of control
same,T/C,"endpoint: median tumor weight change, dose: 0.62 mg/kg/injection, schedule: Q01DX001 (ip), vehicle: DMSO","53 % of control, 71 % of control, 92 % of control"
same,T/C,"endpoint: median tumor weight change, dose: 1.25 mg/kg/injection, schedule: Q01DX001 (ip), vehicle: DMSO","7 % of control, 34 % of control, 89 % of control"
C[PH+](C)C.C[PH+](C)C.[Au],T/C,"endpoint: median tumor weight change, dose: 6.25 mg/kg/injection, schedule: Q01DX001 (ip), vehicle: saline",93 % of control and 124 % of control
CN(Cc1cnc2nc(N)nc(N)c2n1)c1c(Cl)cc(C(=O)NC(CCC(=O)O)C(=O)O)cc1Cl (centres undefined),T/C,"endpoint: median tumor weight (est.), dose: 12.5 mg/kg/injection, schedule: Q07DX005 (ip), vehicle: Klucel (hydroxypropylcellulose) (HPC)",66 % of control and 174 % of control
same,T/C,"endpoint: median tumor weight (est.), dose: 100.0 mg/kg/injection, schedule: Q07DX005 (ip), vehicle: Klucel (hydroxypropylcellulose) (HPC)",87 % of control and 124 % of control
same,T/C,"endpoint: median tumor weight (est.), dose: 200.0 mg/kg/injection, schedule: Q07DX005 (ip), vehicle: Klucel (hydroxypropylcellulose) (HPC)",53 % of control and 98 % of control
same,T/C,"endpoint: median tumor weight (est.), dose: 400.0 mg/kg/injection, schedule: Q07DX005 (ip), vehicle: Klucel (hydroxypropylcellulose) (HPC)",35 % of control and 62 % of control
